# From the supplement of paper PMC3334620
# Whole data set: some 33,000 sequences, median “E-score (-0.5 to 0.5)” near -0.04, cut for the highest 2% near 0.36. The list shows a part of the results.
# Target: T1, Hmlalpha2 (UniProt P0CY09)
# T1 sequence: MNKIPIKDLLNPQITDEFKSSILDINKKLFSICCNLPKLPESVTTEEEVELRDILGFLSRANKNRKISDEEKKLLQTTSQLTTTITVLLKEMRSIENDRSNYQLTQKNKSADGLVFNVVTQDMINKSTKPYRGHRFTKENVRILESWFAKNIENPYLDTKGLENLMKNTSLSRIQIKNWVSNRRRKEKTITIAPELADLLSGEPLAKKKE
# Test: PBM E-score (8-mer binding enrichment) (E-score (-0.5 to 0.5)); higher = stronger / more preferred TF binding; most listed sequences are background and not binding sites
# Details: protein concentration: 200 nM; construct: GST-full length
# Procedure, shortened: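 Bound GST-tagged yeast transcription factors, applied at about 100-200 nM to double-stranded universal all-10-mer Agilent arrays, were detected with fluorescent anti-GST. Scans were normalised with masliner. A modified Wilcoxon-Mann-Whitney statistic, the E-score, was assigned to each ungapped eight-base word pooled with its reverse complement by the Universal PBM Analysis Suite.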
row,Sequence,PBM E-score
1,AACGCCTT,-0.0856
2,ATCATAAT,0.0917
3,CGGCGTTA,-0.0148
4,CTCGGTTC,-0.185
5,AGAGTGCT,0.0169
6,AAGTATTC,0.0867
7,ACAGCTCA,-0.122
8,TACGTAGA,0.332
9,ATAGACAG,0.0508
10,CATTCCGC,-0.204
11,GGATATAC,0.0826
12,AAATCACC,0.0614
13,GTCAAAGA,0.172
14,GCACAGGA,-0.116
15,AATCCGCT,-0.108
16,CTTTCTGA,0.0509
17,AACTTGAA,0.0203
18,CGGCGTGA,-0.192
19,AGGGTGCA,-0.142
20,CCTACCAA,-0.00196
21,CCCTGCGA,-0.155
22,CGTCGCAA,-0.0903
23,CGTCGGCA,-0.13
24,CCGGTGCA,-0.247
25,AGCTGTAA,0.153

row,Sequence,PBM E-score
1,CTCATATC,-0.331
2,CCTTTGAG,-0.122
3,CCGGCAGG,-0.284
4,TATGGTCA,-0.104
5,ATTCACGC,0.102
6,ATGATGCC,-0.141
7,GACTACGA,-0.164
8,AACCGGGC,-0.337
9,GATGTACC,0.135
10,GAAGCCCA,-0.291
11,AGTTATGG,-0.00247
12,CCCTTCAG,-0.197
13,ATCTCAGA,-0.191
14,CACCGATA,0.0159
15,TAAGTAGA,0.122
16,TATAAGGA,0.078
17,CACCTAAG,0.172
18,GATAGACC,-0.00159
19,CACCAGGC,-0.137
20,ATAAAAAC,0.325
21,CCTCCTAA,-0.0883
22,CATAAAGG,-0.0516
23,CAGTTTGC,-0.118
24,CAGTCTCC,-0.127
25,ATTGAGCC,-0.0416

row,Sequence,PBM E-score
1,ACTGGACC,-0.159
2,GAATGTGC,-0.0692
3,ATCATGAA,-0.0623
4,CAGCGCAA,-0.218
5,AAGACATG,0.299
6,GGCCCAAA,-0.319
7,CGGGCCAG,-0.275
8,CTTGGGGC,-0.338
9,CGTAAGCA,-0.0655
10,CAGTCCAG,-0.165
11,AGATAAAC,0.0963
12,AGCCTCTC,-0.225
13,CCACACCG,-0.0872
14,CCTGCGAC,-0.228
15,CAGCAGCG,0.0849
16,CCATGTGC,0.0482
17,AATGCAGT,-0.00748
18,ACTGGATG,-0.0192
19,AGCCAGGG,-0.212
20,GACCCCAA,-0.181
21,AGATGTTG,-0.0256
22,ATGAGGGA,-0.147
23,AGTTTAAA,0.233
24,GCAGAAGC,-0.0446
25,GACGCTCA,-0.111

row,Sequence,PBM E-score
1,AGGTCGGG,-0.176
2,AGCTAGCA,-0.00921
3,ACAGTTAT,-0.0215
4,ACCACGCT,-0.134
5,ATAGGTTG,-0.175
6,GAGAGTAA,0.125
7,ACAATGTA,0.343
8,TCACATAA,0.228
9,ATCGTTAC,-0.0552
10,GCCCGAGC,-0.135
11,ATAAAATC,-0.0133
12,AGTCACTA,-0.0812
13,ACGAGGTG,0.0678
14,CCCCCATA,-0.287
15,GCCCGTTA,-0.208
16,GCAATACA,0.345
17,CAAGATGC,0.0469
18,ATATGCTG,-0.0833
19,CATCAGGC,-0.0475
20,GCTTCGTA,0.0191
21,ACATCGCA,0.193
22,CAAGTATC,0.0593
23,ACGGGCGC,-0.0808
24,AAGCGTAT,0.0488
25,AATTAACT,0.173

row,Sequence,PBM E-score
1,AAGCGCTA,-0.0377
2,CGCGGGCA,0.145
3,CCTCGCCG,-0.2
4,CAGCCTAC,-0.112
5,CTCTACGC,0.0772
6,CAGTGTGG,-0.13
7,GCCCCTAA,-0.235
8,AGCACGTA,0.203
9,CAAACTGC,-0.137
10,GATACGCC,-0.285
11,ACGCGTAC,0.345
12,CTTACGAC,-0.0977
13,CGCATTAG,-0.105
14,AAAGTCAG,-0.132
15,CGTGCGAG,-0.0847
16,AAAACAAG,0.273
17,CAGATTAA,0.11
18,GTCTGAAA,-0.00255
19,AACCGTAA,-0.0191
20,AGCTGCCG,-0.324
21,ACCCCAGA,-0.286
22,ACCCGCCA,-0.0792
23,GTCTACAA,0.152
24,AGACCCAG,-0.248
25,CTCGGACC,-0.277

row,Sequence,PBM E-score
1,GAATAATC,0.0998
2,ACAAGCAA,0.211
3,AAGGACGG,-0.303
4,CGATGTAC,0.221
5,CCGTTCCG,-0.225
6,CTAAGCGC,-0.106
7,CAGCCTGC,-0.0442
8,CATGATAG,0.152
9,CCTTGCTC,-0.27
10,CAAAGCGA,-0.0008
11,CGAACTTC,0.0501
12,ATGCACAC,0.106
13,AATTCGTG,0.0212
14,AAGGGTGT,0.0914
15,CCCACGGA,-0.238
16,AGATTAAT,0.109
17,GGTCTCAC,-0.0611
18,ATGGTACG,0.104
19,GGCGCCTA,-0.149
20,AATACGGA,0.0243
21,CTTTGTTC,0.0245
22,TAGAGCTA,-0.0458
23,AACGAGAG,-0.0137
24,AACCTTGA,0.171
25,CGCCGGAA,-0.247

row,Sequence,PBM E-score
1,ACCGGCCT,-0.207
2,CTGTCCCC,-0.341
3,GACACCAA,-0.139
4,CGCCCTAA,-0.133
5,GGCGTCCC,-0.425
6,ATAATCTA,0.131
7,ATAAGACC,-0.0531
8,CAGCCAGC,-0.251
9,CACGAAAG,0.0877
10,AGTGAACC,-0.0698
11,ACCGCGCC,-0.182
12,GTCTTAAA,0.0182
13,CATACGTC,0.0276
14,CAAGGGAA,-0.028
15,GACTGTCA,-0.129
16,CTTTAATC,-0.00148
17,CAGAAGTC,-0.0727
18,TATAGCAA,0.0624
19,AAATCTAT,0.127
20,GCCCATAC,0.0444
21,TCCCCCAA,-0.264
22,TGGCGGAA,-0.304
